About 2,200 (0.71%) of roughly 310,000 compounds showed an effect of 50% or more. The effect is printed as a negative number. This is one part of the list.
molecular target: human ether-à-go-go-related gene (hERG) potassium channel (human, UniProt Q12809); test: primary screen, population patch clamp on CHO cells stably expressing hERG
Sequence (Q12809 whole entry, looked up): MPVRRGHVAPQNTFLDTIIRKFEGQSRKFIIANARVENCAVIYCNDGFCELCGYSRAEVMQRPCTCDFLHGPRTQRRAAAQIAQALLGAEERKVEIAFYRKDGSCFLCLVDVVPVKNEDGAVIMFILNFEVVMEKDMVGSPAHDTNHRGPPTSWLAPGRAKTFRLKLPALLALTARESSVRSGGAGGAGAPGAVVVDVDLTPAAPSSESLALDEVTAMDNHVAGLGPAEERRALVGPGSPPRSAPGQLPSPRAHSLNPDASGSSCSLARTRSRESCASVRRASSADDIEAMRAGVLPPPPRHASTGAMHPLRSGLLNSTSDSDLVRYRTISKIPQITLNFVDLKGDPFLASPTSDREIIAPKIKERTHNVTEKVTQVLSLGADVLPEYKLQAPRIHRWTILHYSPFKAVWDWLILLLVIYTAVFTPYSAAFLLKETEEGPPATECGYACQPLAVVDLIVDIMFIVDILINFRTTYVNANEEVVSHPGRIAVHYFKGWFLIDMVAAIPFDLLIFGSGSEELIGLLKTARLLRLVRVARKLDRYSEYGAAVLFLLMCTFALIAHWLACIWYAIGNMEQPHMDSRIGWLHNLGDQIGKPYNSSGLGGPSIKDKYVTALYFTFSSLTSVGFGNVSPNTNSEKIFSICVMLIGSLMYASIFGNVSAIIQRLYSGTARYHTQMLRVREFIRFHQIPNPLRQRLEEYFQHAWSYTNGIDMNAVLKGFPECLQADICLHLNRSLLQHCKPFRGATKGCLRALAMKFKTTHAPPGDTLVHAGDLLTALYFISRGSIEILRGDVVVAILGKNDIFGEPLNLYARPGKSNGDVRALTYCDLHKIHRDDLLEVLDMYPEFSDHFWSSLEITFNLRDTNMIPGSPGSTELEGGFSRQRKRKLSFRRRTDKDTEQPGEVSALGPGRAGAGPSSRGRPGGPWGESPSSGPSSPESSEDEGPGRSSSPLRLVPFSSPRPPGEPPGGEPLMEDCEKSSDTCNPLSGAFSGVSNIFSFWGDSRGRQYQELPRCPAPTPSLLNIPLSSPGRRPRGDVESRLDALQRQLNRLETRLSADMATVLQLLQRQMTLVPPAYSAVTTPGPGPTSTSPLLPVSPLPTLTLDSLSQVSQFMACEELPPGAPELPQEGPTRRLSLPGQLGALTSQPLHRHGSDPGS

Row | Compound | hERG current change (%, negative = inhibition) at 1uM [%]
1 | Cc1ccc(C(=O)NCC(=O)OCn2nnc3ccccc3c2=O)cc1 | 10
2 | COc1ccc(C(=O)COC(=O)Cc2n[nH]c(=O)c3ccccc23)c(OC)c1 | 13.1
3 | CCCn1c(NCc2c[nH]c3ccccc23)nc2ccccc21 | 1.35
4 | O=C(NCCO)C(=O)Nc1cc2c3c(c1)CCC(=O)N3CCC2 | 3.17
5 | COc1ccc(S(=O)(=O)Nc2c(C(=O)O)[nH]c3ccccc23)cc1 | 9.01
6 | CCOC(=O)C1(Cc2cccc(Cl)c2)CCCN(C(=O)c2occc2C)C1 (stereo not drawn) | 10.3
7 | COc1ccc(NC2CCCN(C(=O)CCCn3cncn3)C2)cc1OC (stereo not drawn) | 7.19
8 | CC(C)c1ccccc1NC(=O)CNC(C)c1ccc(F)cc1 (stereo not drawn) | 10.6
9 | COc1ccc(NS(=O)(=O)c2cccc(C(=O)NNC(=O)c3ccc(O)c(Cl)c3)c2)cc1 | 9.47
10 | COc1ccc(Nc2cc(C(=O)NCc3cccnc3)c3ccccc3n2)c(OC)c1 | 11.3
11 | COc1ccc(CNC(=O)CSc2nc3ccc(N)cc3s2)cc1 | 11.8
12 | Cc1c(OCC(=O)N(C)c2ccccc2)ccc2c3c(c(=O)oc12)CCC3 | 5.87
13 | CCOC(=O)C(CC)/C(C)=N\NC(=O)CCC(=O)Nc1ccc(Cl)cc1Cl (stereo not drawn) | 5.13
14 | Cc1cc(C)c2[nH]c(=O)c(C(c3nnnn3CC3CCCO3)N3CCC(C)CC3)cc2c1 (stereo not drawn) | 2.18
15 | O=C(NCC(=O)N1CCN(c2ccccc2)CC1)c1ccc(Br)o1 | -7.83
16 | Cc1cc(Nc2ccc(Br)cc2)nc(-c2ccccc2O)n1 | 13.3
17 | O=[N+]([O-])[N-][n+]1cnn(Cc2ccccc2)c1 | 9.94
18 | CN(Cc1c(F)cccc1Cl)C(=O)c1cc2ccccc2o1 | 3.98
19 | COc1cc(NC(=O)C/C(C)=N/NC(=O)Cc2ccccc2)c(OC)cc1Cl | 9.76
20 | C=CC[N+](C)(C)C/C(Cl)=C(\Cl)c1ccccc1.[Br-] | 3.15
21 | Brc1ccc(-c2nnc3sc(CN4CCN(c5ccccc5)CC4)cn23)cc1 | 4.71
22 | O=C(CN1C(=O)COc2ccccc21)N(Cc1ccccc1)Cc1ccccn1 | 3.75
23 | COc1ccc(/C=N/NC2=NS(=O)(=O)c3ccccc32)cc1OC(C)=O | 11

Row | Compound | hERG current change (%, negative = inhibition) at 1uM [%]
24 | Cc1noc(NS(=O)(=O)c2ccc(N/C=C\C(=O)c3ccncc3)cc2)c1C | -3.24
25 | O=C1c2ccccc2C(Nc2ccc(F)c(Cl)c2)N1Cc1ccco1 (stereo not drawn) | 9
26 | CC1(C)Cc2cccc(OCC(=O)N3CCN(S(=O)(=O)c4ccccc4)CC3)c2O1 | 5.84
27 | c1ccc2c(N3CCCCC3)nc(N3CCCCC3)nc2c1 | -3.29
28 | NC(=O)NCCN1CCN(c2ncc(C(F)(F)F)cc2Cl)CC1 | -7.37
29 | CN(C)CCNc1ncnc2c1sc1nc(N3CCCC3)c3c(c12)CC(C)(C)OC3 | 10.9
30 | COC(=O)C1=C(c2ccc(OC(F)(F)F)cc2)C[C@@H]2CC[C@H]1N2C(=O)N1CCC(C)CC1 | 4.11
31 | COc1ccc2nc(NNC(=O)c3cc(=O)c4ccccc4o3)sc2c1 | 8.82
32 | Cc1cccc(Cn2cnc3c(NS(C)(=O)=O)c(C)c(C)cc32)c1 | 13
33 | Cc1cc(=O)oc(C)c1C(=O)NCC1CCCO1 (stereo not drawn) | 3.36
34 | CC1(c2ccccc2)CC(C)(C)N(C(N)=O)c2ccccc21 (stereo not drawn) | 15.2
35 | Cc1ccc(OCC(O)Cn2c(N)nc3c2c(=O)n(C)c(=O)n3C)cc1 (stereo not drawn) | 9.77
36 | CCOc1cc(NC(=O)CC(C)C)c(OCC)cc1NC(=O)CCn1nnc2ccccc21 | 10.2
37 | CCOc1ccc(N(CC(=O)N2CCc3ccccc32)S(=O)(=O)c2c(C)noc2C)cc1 | -2.87
38 | COCCn1c(N/N=C(C)/C=C/c2ccccc2)nc2c1c(=O)[nH]c(=O)n2C | 4.03
39 | O=c1c2ccccc2oc2cc(C#Cc3ccccn3)ccc12 | 15.6
40 | Cc1ccc(S(=O)(=O)NCCC(=O)NCc2ccccc2)cc1 | 7
41 | O=C1N/C(=N/S(=O)(=O)Cc2ccccc2)S/C1=C/c1ccc2c(c1)OCO2 | 5.17
42 | CC1=Nc2ccc(C)cc2/C1=C/c1c(N)n2nc(CC(=O)N3CCOCC3)sc2nc1=O | 11.7
43 | COc1cccc(C(=O)N2CCC(n3nccc3NC(=O)C(OC)c3ccccc3)CC2)c1 (stereo not drawn) | -4.12
44 | COc1ccc(/C=C/C(=O)Nc2nonc2NC(C)=O)cc1 | 15.5
45 | C=CCN1C(=O)/C(=C/c2ccsc2)SC1=S | 22.5
